About 12,000 (3.5%) of roughly 340,000 compounds were called active. Inconclusive results, whose numbers are uncertain, are shown with a selection of clear calls. Calls follow the shape of the dose curve; as a rule, active = well fitted inhibition curve with a large enough effect; inconclusive = small, poorly fitted or top-dose-only effect, or another doubt; inactive = no such curve, though single readings can be large or run the other way. Potencies of inconclusive entries are left out as doubtful fits.
experiment: qHTS Assay for Inhibitors of Hepatitis C Virus (HCV); details: Huh7.5.1 HCVcc-Cre (HCVcc is cell-culture hepatitis C virus) infection, luciferase reporter, 44 h; series mostly up to 41.8 µM
Procedure, shortened: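 1,000 cells/well; 4 h culture; + compound; + HCVcc-Cre (~0.5 moi); 44 h; luciferase substrate, RT 15 min; read 15 sec.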
Potency is read from the fitted curve at half-maximal effect; tags tell the direction and shape of the fitted curve.

Q: Which Potency does the source give for `Cc1cccc(C)c1OCC(=O)N/N=C/C=C/c1ccco1` here?
A: inconclusive [inhibitor, single point]

Q: Which Potency does the source give for `COc1ccc(-c2csc(NC(=S)NC(=O)/C=C/c3ccccc3)n2)cc1Br` here?
A: inconclusive [inhibitor, full curve]

Q: Which Potency does the source give for `COc1ccc2c(c1OC)C(=O)O[C@@H]2[C@H]1c2cc3c(cc2CCN1C)OCO3` here?
A: inactive

Q: For `CC(C)(OC(=O)c1ccc(F)cc1)c1cc2ccccc2c(=O)o1`, which Potency is on record?
A: inconclusive [inhibitor, partial curve]

Q: With `COc1ccccc1N1CCN(C(=O)C2CCN(S(=O)(=O)c3ccc(Cl)cc3)CC2)CC1` as the compound, how does the Potency read?
A: inconclusive [inhibitor, partial curve, poor fit]

Q: Which Potency does the source give for `C[C@@H](OC(=O)c1[nH]cnc1C(=O)NCc1ccc(CNC(=O)OC(C)(C)C)cc1)c1ccccc1` here?
A: inconclusive [inhibitor, single point]

Q: With `O=C(CSc1nc2ccccc2c(=O)n1Cc1ccco1)N1CCCCCC1` as the compound, how does the Potency read?
A: active: 11.2 µM

Q: With `CC(C)Oc1cc2oc(=O)c3c(c2cc1Cl)CCC3` as the compound, how does the Potency read?
A: inconclusive [inhibitor, single point]

Q: With `Cc1csc(N(C)C(=O)CSc2nnc(COc3cccc4ccccc34)o2)n1` as the compound, how does the Potency read?
A: inconclusive [inhibitor, single point]

Q: Which Potency does the source give for `Cc1ccc(-c2onc(C)c2C)cc1S(=O)(=O)N1CC(C)Oc2ccccc21` (stereo unspecified) here?
A: active: 12.6 µM

Q: For `CC(C)OCCCn1c(=O)c2ccccc2n2c(CCC(=O)NCc3ccccn3)nnc12`, which Potency is on record?
A: inactive

Q: With `O=C(NC1CCCC1)C(c1cccnc1)N(C(=O)c1csnn1)c1ccccc1Cl` (stereo unspecified) as the compound, how does the Potency read?
A: inconclusive [inhibitor, partial curve, poor fit]

Q: Which Potency does the source give for `Cc1cc(=O)c2ccccc2n1CC(=O)NCc1ccccc1` here?
A: inconclusive [inhibitor, single point]

Q: With `O=C(Nc1ccc(N2CCCCCC2)cc1)c1ccccc1Cl` as the compound, how does the Potency read?
A: inconclusive [inhibitor, full curve]

Q: For `CCc1ccccc1NC(=O)CCC(=O)c1cccs1`, which Potency is on record?
A: inactive

Q: For `CCOC(=O)Nc1ccc2c(CNC(C)c3ccccc3OC)cc(=O)oc2c1` (stereo unspecified), which Potency is on record?
A: inactive

Q: Which Potency does the source give for `O=C(NC1CCCC1)C(c1ccc(F)cc1)N(Cc1ccc(Cl)cc1)C(=O)CCl` (stereo unspecified) here?
A: inconclusive [inhibitor, single point]

Q: Which Potency does the source give for `Cc1cccc(N2C(S)=C(C#N)C(=O)NC2c2ccco2)c1` (stereo unspecified) here?
A: inactive

Q: For `COc1cccc(CC2(CO)CCCN(CC3=Cc4cc(OC)ccc4OC3)C2)c1` (stereo unspecified), which Potency is on record?
A: inconclusive [inhibitor, single point]

Q: For `COc1ccc(C2C(C#N)=C3NC(=O)c4c(sc5c4CCCCC5)N3C3=C2C(=O)CC(C)(C)C3)cc1` (stereo unspecified), which Potency is on record?
A: inconclusive [inhibitor, single point]

Q: Which Potency does the source give for `CC(=O)Nc1ccc(S(=O)(=O)NCCN2CCNC2=O)cc1Cl` here?
A: inactive

Q: For `Cc1ccccc1N=C1NC(=O)/C(=C/c2cccn2C)S1`, which Potency is on record?
A: inactive

Q: For `COc1ccc(/C=C/c2nc3ccccc3n2Cc2ccc(OC)c(OC)c2)cc1`, which Potency is on record?
A: inconclusive [inhibitor, single point]

Q: With `CCC(C)NC(=S)N1CCN(C)CC1` (stereo unspecified) as the compound, how does the Potency read?
A: inactive

Q: For `Cc1ccc(N(C(=O)Cn2nnc(-c3ccc(F)cc3)n2)C(CC(C)C)C(=O)NCC2CCCO2)cc1` (stereo unspecified), which Potency is on record?
A: inactive

Q: With `O=C(Cn1ccccc1=O)NCc1ccc(F)cc1` as the compound, how does the Potency read?
A: inactive

Q: For `CCSc1ncnc2c(C#N)c3n(c12)CCCCC3`, which Potency is on record?
A: inconclusive [inhibitor, single point]

Q: For `COc1ccc(S(=O)(=O)N(C)C2CCS(=O)(=O)C2)cc1OC` (stereo unspecified), which Potency is on record?
A: inconclusive [inhibitor, single point]

Q: With `Cc1ccc(-c2ccc(C#N)c(=O)n2CC(=O)N(C)C)cc1` as the compound, how does the Potency read?
A: inactive

Q: For `COc1ccc(OC)c(C2C(C(N)=O)=C(C)Nc3nc(-c4cccc(Cl)c4)nn32)c1` (stereo unspecified), which Potency is on record?
A: inconclusive [inhibitor, partial curve, poor fit]

Q: With `O=C1c2[nH]c(=O)[nH]c(=O)c2CN1Cc1ccccc1` as the compound, how does the Potency read?
A: inconclusive [inhibitor, single point]

Q: For `CSCC[C@H](NC(=O)Nc1ccc(OC(F)(F)F)cc1)C(=O)O`, which Potency is on record?
A: inactive

Q: For `CSc1ccccc1-c1nnc(-c2ccc(C)cc2)o1`, which Potency is on record?
A: inconclusive [inhibitor, single point]

Q: For `CC1CCCN(C(=O)c2cc(-c3cccs3)nc3ccccc23)C1` (stereo unspecified), which Potency is on record?
A: inconclusive [inhibitor, partial curve]

Q: With `Cc1cccn2c(=O)c(/C=C(\C#N)C(N)=O)c(N3CCN(c4cccc(Cl)c4)CC3)nc12` as the compound, how does the Potency read?
A: inactive

Q: For `Cc1ccc(C(C)NC(=O)C2CCCC2)c(C)c1` (stereo unspecified), which Potency is on record?
A: inactive

Q: With `CCCn1nnc(NC(=O)COc2cc(C)ccc2C(C)C)n1` as the compound, how does the Potency read?
A: inconclusive [inhibitor, full curve]

Q: With `COc1ccccc1N1CCN(C(=O)c2cccc(S(=O)(=O)N3c4ccccc4CC3C)c2)CC1` (stereo unspecified) as the compound, how does the Potency read?
A: active: 10 µM

Q: For `COC(=O)c1ccc(N2CCN(S(=O)(=O)c3ccc(C)cc3)CC2)c([N+](=O)[O-])c1`, which Potency is on record?
A: inconclusive [inhibitor, single point]

Q: With `Cc1ccc(CSc2nc3c(c(N(C)C)n2)CCCC3)cc1` as the compound, how does the Potency read?
A: inconclusive [inhibitor, partial curve]

Q: Which Potency does the source give for `CCCCOC(=O)Nc1nnc(C(C)C)s1` here?
A: inconclusive [inhibitor, single point]

Q: Which Potency does the source give for `COc1ccc(CCNC(=O)C(=O)NCC2OCCN2S(=O)(=O)c2ccc(C)cc2)cc1` (stereo unspecified) here?
A: inconclusive [inhibitor, single point]

Q: For `CCN(CC)C(=O)[C@H]1CC(CC(=O)NCC23CC4CC(CC(C4)C2)C3)C(=O)N2CCc3c([nH]c4ccc(OC)cc34)[C@]12C` (stereo partly specified), which Potency is on record?
A: inconclusive [inhibitor, single point]

Q: Which Potency does the source give for `COCCN=c1scc(-c2cccs2)n1/N=C/c1ccc(O)c(O)c1O` here?
A: inconclusive [inhibitor, partial curve]

Q: For `[O-]C(=C(C(=S)Nc1cccc2ccccc12)[n+]1cccc(CO)c1)c1ccc(Cl)s1`, which Potency is on record?
A: active: 7.94 µM

Q: For `Nc1nonc1-n1nnc(C(=O)N/N=C/c2cc(Br)cs2)c1-c1ccccc1`, which Potency is on record?
A: inactive

Q: For `COc1ccc(/C=C/C(=O)N2CCN(S(=O)(=O)c3ccccc3Br)CC2)cc1OC`, which Potency is on record?
A: inconclusive [inhibitor, single point]

Q: Which Potency does the source give for `C=CCn1c(SCC(=O)c2ccc(Br)cc2)nnc1C(CC(C)C)NC(=O)c1cccs1` (stereo unspecified) here?
A: inconclusive [inhibitor, single point]

Q: Which Potency does the source give for `Cc1ccc(NC(=O)CCl)c(C)c1` here?
A: inconclusive [inhibitor, single point]

Q: Which Potency does the source give for `CCCNS(=O)(=O)c1ccc(CCC(=O)N2CCCC2)cc1` here?
A: inactive

Q: Which Potency does the source give for `CCCC(C(=O)NC1CCCC1)N(Cc1ccc(OC)cc1)C(=O)c1snc(C(N)=O)c1N` (stereo unspecified) here?
A: inconclusive [inhibitor, single point]

Q: For `CN(C)S(=O)(=O)c1cc(NC(=O)CN2C(=O)NC3(CCCc4ccccc43)C2=O)ccc1Cl` (stereo unspecified), which Potency is on record?
A: inconclusive [inhibitor, single point]

Q: Which Potency does the source give for `COc1c(Cl)cc(Cl)cc1C(=O)Nc1ccc(NC(=O)c2cccs2)cc1` here?
A: inconclusive [inhibitor, full curve]

Q: Which Potency does the source give for `CNc1nc(Cl)nc(NC(C)(C)C)n1` here?
A: inconclusive [inhibitor, full curve, poor fit]

Q: Which Potency does the source give for `COCCNC(=O)c1ccccc1NC(=O)c1ccc(Cl)c(S(=O)(=O)Nc2ccc(C)cc2C)c1` here?
A: inconclusive [inhibitor, partial curve, poor fit]

Q: For `CN(C(=O)c1ccc(Cl)c([N+](=O)[O-])c1)C1(C)CCS(=O)(=O)C1` (stereo unspecified), which Potency is on record?
A: inconclusive [inhibitor, full curve, poor fit]

Q: For `N=c1c2c(-c3ccccc3)c(-c3ccccc3)oc2ncn1Cc1ccco1`, which Potency is on record?
A: active: 6.31 µM

Q: Which Potency does the source give for `O=C(CSc1nc(-c2ccco2)cc(C(F)(F)F)n1)NCC1CCCO1` (stereo unspecified) here?
A: inconclusive [inhibitor, single point]

Q: Which Potency does the source give for `O=C(Nc1cc(S(=O)(=O)Nc2ccc(Cl)cc2)ccc1N1CCCCC1)c1ccc(F)cc1Cl` here?
A: inconclusive [inhibitor, single point]

Q: With `Cc1ccsc1C(=O)C1CCCN(Cc2cnc(N3CCCC3)s2)C1` (stereo unspecified) as the compound, how does the Potency read?
A: inconclusive [inhibitor, full curve]

Q: With `COC(=O)C1CN(C(=O)c2cccc(OC(F)F)c2)c2ccccc2O1` (stereo unspecified) as the compound, how does the Potency read?
A: inactive

Q: Which Potency does the source give for `CCN(CC)C(=O)c1cnn(-c2ccccc2)c1NC(=O)c1ccccc1F` here?
A: inactive

Q: Which Potency does the source give for `COc1ccccc1NC(=S)NC(NC(=O)c1ccco1)C(Cl)(Cl)Cl` (stereo unspecified) here?
A: inactive

Q: With `CCn1c(N)c(C(=O)NCCOC)sc1=S` as the compound, how does the Potency read?
A: inactive

Q: With `Cc1nnc(SCC(=O)NCCc2ccccc2)s1` as the compound, how does the Potency read?
A: inactive

Q: For `O=C(NCC1CCCCC1)c1cc2ccccc2cc1O`, which Potency is on record?
A: active: 12.6 µM

Q: Which Potency does the source give for `COC(=O)C(C)N1C(=O)S/C(=C/c2cc(C)n(C(C)C)c2C)C1=O` (stereo unspecified) here?
A: active: 10 µM

Q: For `NS(=O)(=O)c1ccc(CCNc2ccnc3cc(Cl)ccc23)cc1`, which Potency is on record?
A: inconclusive [inhibitor, partial curve]

Q: Which Potency does the source give for `NC(=S)NN=C1c2cc(OCCN3CCOCC3)ccc2-c2ccc(OCCN3CCOCC3)cc21` here?
A: active: 3.98 µM

Q: Which Potency does the source give for `CN(c1ccc(C(=O)O)cc1)S(=O)(=O)c1ccc(Cl)cc1` here?
A: inactive

Q: Which Potency does the source give for `CN(Cc1ccccc1)C(=O)CSc1nc2c(c(C(F)(F)F)n1)CCc1ccccc1-2` here?
A: inconclusive [inhibitor, single point]

Reference: PubChem BioAssay AID651820 (National Center for Advancing Translational Sciences (NCATS), 2012)
